The text below walks through data of publication PMC5895073, “Cell polarity protein Spa2 coordinates Chs2 incorporation at the division site in budding yeast” (PLoS Genetics, 2018).

Protein sequences, listed by entry. Tags and fused reporters are not part of them. Residues count along the entry.
UniProt P19524: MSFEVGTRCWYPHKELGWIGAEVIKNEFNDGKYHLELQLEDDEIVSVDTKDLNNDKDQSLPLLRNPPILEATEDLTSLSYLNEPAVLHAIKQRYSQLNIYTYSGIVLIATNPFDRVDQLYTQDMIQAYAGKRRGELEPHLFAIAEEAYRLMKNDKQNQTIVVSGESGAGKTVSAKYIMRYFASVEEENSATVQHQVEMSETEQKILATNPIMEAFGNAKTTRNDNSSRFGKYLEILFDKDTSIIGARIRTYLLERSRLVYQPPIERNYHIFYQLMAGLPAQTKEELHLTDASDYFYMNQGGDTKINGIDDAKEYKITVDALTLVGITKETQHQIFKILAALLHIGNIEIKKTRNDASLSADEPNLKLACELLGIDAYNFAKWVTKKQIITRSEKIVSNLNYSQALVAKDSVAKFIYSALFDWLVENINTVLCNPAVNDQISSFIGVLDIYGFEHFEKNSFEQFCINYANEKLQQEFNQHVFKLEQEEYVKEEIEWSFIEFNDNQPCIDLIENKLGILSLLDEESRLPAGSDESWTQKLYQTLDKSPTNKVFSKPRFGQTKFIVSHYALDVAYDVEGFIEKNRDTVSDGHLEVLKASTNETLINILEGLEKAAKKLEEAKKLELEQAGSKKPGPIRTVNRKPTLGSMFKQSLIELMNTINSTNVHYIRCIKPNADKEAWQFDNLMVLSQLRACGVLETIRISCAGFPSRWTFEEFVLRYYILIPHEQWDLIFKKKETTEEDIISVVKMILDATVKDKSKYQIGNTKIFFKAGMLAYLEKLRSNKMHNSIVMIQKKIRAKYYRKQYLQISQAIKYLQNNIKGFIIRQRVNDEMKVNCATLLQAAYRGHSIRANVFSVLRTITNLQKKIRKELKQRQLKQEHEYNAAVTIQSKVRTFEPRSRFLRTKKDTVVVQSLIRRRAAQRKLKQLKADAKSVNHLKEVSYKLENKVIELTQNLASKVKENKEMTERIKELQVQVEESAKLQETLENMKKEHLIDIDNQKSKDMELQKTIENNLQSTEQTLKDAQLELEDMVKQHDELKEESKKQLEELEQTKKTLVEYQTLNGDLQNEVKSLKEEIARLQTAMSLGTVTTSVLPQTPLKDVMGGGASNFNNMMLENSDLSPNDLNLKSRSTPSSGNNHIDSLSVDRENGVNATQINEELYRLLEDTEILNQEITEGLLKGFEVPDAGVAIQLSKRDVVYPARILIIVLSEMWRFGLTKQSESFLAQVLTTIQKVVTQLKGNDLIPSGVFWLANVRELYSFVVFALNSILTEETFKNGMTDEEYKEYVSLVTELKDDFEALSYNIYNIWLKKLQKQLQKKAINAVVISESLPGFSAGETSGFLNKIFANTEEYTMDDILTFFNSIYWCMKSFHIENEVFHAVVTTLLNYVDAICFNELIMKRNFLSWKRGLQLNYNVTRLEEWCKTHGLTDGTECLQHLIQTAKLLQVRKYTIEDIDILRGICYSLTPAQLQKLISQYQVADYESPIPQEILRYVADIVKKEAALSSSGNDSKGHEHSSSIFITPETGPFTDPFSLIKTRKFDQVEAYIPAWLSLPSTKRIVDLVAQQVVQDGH
UniProt P23201, residues 1-552: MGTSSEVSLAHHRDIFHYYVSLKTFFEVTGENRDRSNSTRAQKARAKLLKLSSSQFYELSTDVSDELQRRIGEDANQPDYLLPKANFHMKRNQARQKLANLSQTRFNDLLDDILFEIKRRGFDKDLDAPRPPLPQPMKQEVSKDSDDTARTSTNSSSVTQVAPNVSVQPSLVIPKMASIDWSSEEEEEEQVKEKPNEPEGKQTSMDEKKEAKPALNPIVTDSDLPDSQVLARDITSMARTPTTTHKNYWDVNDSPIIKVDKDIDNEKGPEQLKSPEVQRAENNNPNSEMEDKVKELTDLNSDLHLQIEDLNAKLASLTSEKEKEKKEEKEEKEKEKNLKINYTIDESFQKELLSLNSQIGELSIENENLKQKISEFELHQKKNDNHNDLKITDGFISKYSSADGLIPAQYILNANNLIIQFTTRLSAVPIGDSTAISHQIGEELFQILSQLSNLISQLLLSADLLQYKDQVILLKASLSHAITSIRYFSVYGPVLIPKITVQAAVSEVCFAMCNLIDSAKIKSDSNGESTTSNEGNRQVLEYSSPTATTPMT

No constants are given. Whether binding was seen depends on the method and setting. In cells and extracts the contact can be indirect. Some results given as binding are weak or reduced against the parent protein; the word gives no strength. For some assays here: Where a sequence is shown, tags or fusion partners need not be part of it.

The target in one experiment is T1, Inn1-TAP (S. cerevisiae) (UniProt P53901).
T1 sequence: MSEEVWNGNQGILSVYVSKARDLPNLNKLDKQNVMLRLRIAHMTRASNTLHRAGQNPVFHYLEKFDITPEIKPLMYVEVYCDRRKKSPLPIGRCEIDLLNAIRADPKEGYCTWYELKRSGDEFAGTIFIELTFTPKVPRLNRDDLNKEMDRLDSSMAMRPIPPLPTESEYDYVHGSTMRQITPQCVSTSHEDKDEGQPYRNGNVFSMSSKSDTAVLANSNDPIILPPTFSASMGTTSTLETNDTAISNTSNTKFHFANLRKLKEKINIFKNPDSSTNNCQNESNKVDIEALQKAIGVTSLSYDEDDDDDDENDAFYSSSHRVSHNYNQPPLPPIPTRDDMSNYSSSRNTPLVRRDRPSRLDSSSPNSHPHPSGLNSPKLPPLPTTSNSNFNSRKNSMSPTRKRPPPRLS
Kind of experiment: co-IP; yeast cell extract, cells released 90 min from G1 in YPD at 24°C (cytokinesis); Inn1-TAP on IgG beads; immunoblot. On the technique in general: Immunoblotting shows a protein as a band on a membrane.

Experiment [1] addresses T2, Strep-tag-Chs2-215-629 (S. cerevisiae) (UniProt P14180).
T2 sequence: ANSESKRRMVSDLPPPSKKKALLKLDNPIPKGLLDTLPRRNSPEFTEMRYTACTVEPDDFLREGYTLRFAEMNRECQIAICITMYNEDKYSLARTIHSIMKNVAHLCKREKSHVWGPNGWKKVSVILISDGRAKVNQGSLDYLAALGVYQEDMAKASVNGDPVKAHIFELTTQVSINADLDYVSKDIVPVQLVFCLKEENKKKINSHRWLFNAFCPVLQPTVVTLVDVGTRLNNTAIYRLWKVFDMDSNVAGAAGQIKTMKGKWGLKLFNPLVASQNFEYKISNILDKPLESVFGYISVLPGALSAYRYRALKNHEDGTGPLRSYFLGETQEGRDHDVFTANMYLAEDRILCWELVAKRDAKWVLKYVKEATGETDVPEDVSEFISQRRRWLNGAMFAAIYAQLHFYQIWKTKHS
Put plainly: pull-down; pairs of E. coli cultures mixed, one cell extract; Strep-tagged protein isolated on Strep-Tactin Superflow resin, eluted with 2.5 mM d-desthiobiotin; immunoblot with anti-Strep and anti-His.

For experiment [2], the target named is T3, Strep-tag-Cyk3-SH3 (S. cerevisiae) (UniProt Q07533).
T3 sequence: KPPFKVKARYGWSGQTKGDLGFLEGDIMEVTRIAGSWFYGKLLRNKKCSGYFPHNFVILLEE
The description is as above.

For experiment [3], the target named is T4, Strep-tag-Hof1-1-300 (S. cerevisiae) (UniProt Q05080).
T4 sequence: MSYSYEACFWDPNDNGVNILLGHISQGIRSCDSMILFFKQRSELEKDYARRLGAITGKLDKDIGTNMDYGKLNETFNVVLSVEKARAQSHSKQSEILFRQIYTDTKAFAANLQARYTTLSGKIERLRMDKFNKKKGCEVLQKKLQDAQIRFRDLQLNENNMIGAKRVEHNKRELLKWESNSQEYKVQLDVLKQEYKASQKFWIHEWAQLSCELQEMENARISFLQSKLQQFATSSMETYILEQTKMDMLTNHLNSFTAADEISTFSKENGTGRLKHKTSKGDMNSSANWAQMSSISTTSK
The description is as above.

The target of experiment [4] is T5, Strep-tag-SH3-Hof1 (S. cerevisiae) (UniProt Q05080).
T5 sequence: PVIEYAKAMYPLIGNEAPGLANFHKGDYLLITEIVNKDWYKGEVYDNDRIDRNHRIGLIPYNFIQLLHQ
The experiment is described as above.

In the case of Myo2-5FLAG (from UniProt P19524 1-1574), the binding result with Inn1-TAP (S. cerevisiae) is recorded as “binds”.

Take “6His-Spa2-1-552 (from UniProt P23201 1-552) (domain or fragment)”: the binding entry in experiment [1], in experiment [2], in experiment [3] and in experiment [4] was “binds” throughout.
